25 compounds from publication PMC4336329 (PLoS ONE, 2015) can be followed below.

In all, about 310,000 compounds went through this assay and about 2,200 (0.71%) showed an effect of 50% or more. The effect is printed as a negative number. This is one part of the list.

The target in the assay is human ether-à-go-go-related gene (hERG) potassium channel (human, UniProt Q12809). Kind of assay: primary screen, population patch clamp on CHO cells stably expressing hERG.
Sequence of human ether-à-go-go-related gene (hERG) potassium channel (Q12809 whole entry, looked up): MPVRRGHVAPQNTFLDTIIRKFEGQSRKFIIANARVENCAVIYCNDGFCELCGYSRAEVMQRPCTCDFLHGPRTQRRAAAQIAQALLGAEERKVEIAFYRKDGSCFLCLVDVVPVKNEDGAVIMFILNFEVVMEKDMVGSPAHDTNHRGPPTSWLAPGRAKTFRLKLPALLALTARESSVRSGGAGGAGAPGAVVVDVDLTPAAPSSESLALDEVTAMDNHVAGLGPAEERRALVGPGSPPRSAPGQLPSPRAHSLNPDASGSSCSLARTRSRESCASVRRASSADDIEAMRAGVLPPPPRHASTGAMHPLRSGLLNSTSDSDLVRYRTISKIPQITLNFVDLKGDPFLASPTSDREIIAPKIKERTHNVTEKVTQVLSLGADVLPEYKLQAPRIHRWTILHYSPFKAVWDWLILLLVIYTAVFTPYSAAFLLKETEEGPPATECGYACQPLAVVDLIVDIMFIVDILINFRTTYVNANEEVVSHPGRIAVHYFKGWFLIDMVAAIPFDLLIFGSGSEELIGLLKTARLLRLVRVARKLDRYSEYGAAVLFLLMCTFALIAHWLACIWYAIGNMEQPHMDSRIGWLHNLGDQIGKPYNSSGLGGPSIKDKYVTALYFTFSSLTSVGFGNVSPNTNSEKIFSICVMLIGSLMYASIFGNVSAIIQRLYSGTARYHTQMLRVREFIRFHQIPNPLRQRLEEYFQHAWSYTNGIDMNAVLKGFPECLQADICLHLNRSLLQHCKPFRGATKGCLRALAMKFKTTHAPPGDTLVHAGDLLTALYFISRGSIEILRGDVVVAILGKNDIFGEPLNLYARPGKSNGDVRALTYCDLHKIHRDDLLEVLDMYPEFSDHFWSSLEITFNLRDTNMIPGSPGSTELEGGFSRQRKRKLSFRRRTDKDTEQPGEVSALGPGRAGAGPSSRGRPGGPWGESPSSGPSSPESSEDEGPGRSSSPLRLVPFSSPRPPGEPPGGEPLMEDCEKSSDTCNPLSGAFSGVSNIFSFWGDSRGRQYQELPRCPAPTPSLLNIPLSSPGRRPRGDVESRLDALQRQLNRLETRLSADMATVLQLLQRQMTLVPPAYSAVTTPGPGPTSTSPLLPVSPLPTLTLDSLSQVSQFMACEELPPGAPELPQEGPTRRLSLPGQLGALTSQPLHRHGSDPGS
For the compound `COC(=O)NC(=C(Cl)Cl)P(=O)(c1ccccc1)c1ccccc1`, the “hERG current change (%, negative = inhibition) at 1uM” value is 14.6%.
Next, `Cc1cc(Cl)ccc1C(=O)C1CCCN(C(=O)/C=C/c2cnn(C)c2)C1` (stereo not shown): 6.5%; `CC(C)CCNC(=O)c1ccc2c(SCC(=O)O)c3c(nc2c1)CCCC3`: 4.08%; `COc1cccc(C(=O)NCC(=O)OCC(=O)c2ccccc2)c1`: 9.73%.
For `CCn1c(/C=C/c2c(C)n(CC)c3ccccc23)nc2ccccc2c1=O`, the “hERG current change (%, negative = inhibition) at 1uM” value is -11.2%.
`CC1CN(C(=O)c2ccn(C)n2)CC(C)O1` (stereo not shown): the “hERG current change (%, negative = inhibition) at 1uM” value is recorded as 13%.
For `Cc1nc(-c2cc(-c3nc(-c4ccc(C(F)(F)F)cc4)no3)no2)cs1` the value was -7.99%.
For `Cc1nc(-c2ccccc2)sc1-c1nc(-c2cccnc2)ncc1S(=O)(=O)c1ccccc1` the value was 6.14%; for `COc1cccc2cc(C(C)N(CCCN3CCOCC3)C(=S)Nc3cc(C)cc(C)c3)oc12` (stereo not shown), 4.98%.
Consider `Cc1cccc(CN2CCC(CNC(=O)C3CCCN(S(=O)(=O)c4cnc[nH]4)C3)CC2)c1` (stereo not shown), for which the “hERG current change (%, negative = inhibition) at 1uM” value is on record as -6.2%.
Take `Cc1ccc(N(C)S(=O)(=O)c2ccc(-c3cc(C)no3)s2)cc1`: the “hERG current change (%, negative = inhibition) at 1uM” value is listed as 6.66%.
Next, `CC(=O)c1cc(-c2ccccc2)n(CCC(=O)NC(C)(C)C)c1C`: 5.53%.
Next, `CCCC1(c2ccccc2)NC(=O)N(CC(=O)NCc2ccc(OC)cc2)C1=O` (stereo not shown): 9.47%; `COc1cccc(C2CC(c3c(-c4ccccc4)c4cc(Cl)ccc4[nH]c3=O)=NN2S(C)(=O)=O)c1OC` (stereo not shown): 10.2%.
Take `OCCCc1n[nH]c(=S)n1-c1ccccc1`: the “hERG current change (%, negative = inhibition) at 1uM” value came out at 11.4%.
For `C=CCOc1c2ccc(C(=O)N(CC)c3ccc(OC)cc3)cc2nn1C` the value was 16%; for `CCS(=O)(=O)N1CCCC(C(=O)NCCCOC)C1` (stereo not shown), 16.6%; for `CC(=O)Oc1ccc(-c2nc3ccccc3c(=O)o2)cc1`, 10.3%.
For `Cc1ccc(O)c(C(CC(=O)NCc2ccco2)c2ccccc2)c1` (stereo not shown) the value was 9.48%; for `O=C1c2cccc3cccc(c23)N1Cc1ccc(F)cc1`, 3%; for `Cc1nn(CCC(=O)NNC(=S)Nc2cccc(Cl)c2)c(C)c1[N+](=O)[O-]`, -1.73%.
For `CCOc1ccsc1C(=O)OC` the value was 14.7%; for `Cc1ccc(NS(=O)(=O)c2c(C)[nH]c(=O)[nH]c2=O)cc1C`, 2.72%; for `Cc1c(C=O)c2ccccc2n1Cc1ccc(F)cc1`, 8.22%.
As to `CC(C)Cc1nnc(NC(=O)c2cc(S(=O)(=O)N(C)C)ccc2N2CCCC2)s1`, the “hERG current change (%, negative = inhibition) at 1uM” value was found to be 4.69%.
